{"source": "paper PMC11022047", "about": "(iScience, 2024)", "binders": {"B1": {"name": "pro-human ISG15 ([…]) C78S (natural protein)", "chain": "not shown"}}, "molecular_target": "T1, biotinylated human USP18 (human, UniProt Q9UMW8 16-372, biotin (site and chemistry not stated))", "T1 sequence (looked up)": "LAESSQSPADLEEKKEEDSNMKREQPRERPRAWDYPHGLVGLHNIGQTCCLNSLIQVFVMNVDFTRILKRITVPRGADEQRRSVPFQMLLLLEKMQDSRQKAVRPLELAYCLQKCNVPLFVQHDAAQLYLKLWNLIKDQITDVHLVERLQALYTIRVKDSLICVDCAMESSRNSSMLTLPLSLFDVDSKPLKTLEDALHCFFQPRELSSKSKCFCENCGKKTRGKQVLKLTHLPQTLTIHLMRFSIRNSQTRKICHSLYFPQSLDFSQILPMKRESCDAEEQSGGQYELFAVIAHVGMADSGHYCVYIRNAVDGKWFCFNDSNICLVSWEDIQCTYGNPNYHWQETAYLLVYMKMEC", "assay": "BLI", "data": [{"binder": "B1", "values": [{"measurement": "Kd", "value": 40, "unit": "nM"}]}]}
